One assay concerns the target FKRP-157-Cys6Ser (human) (UniProt Q9H9S5). Nature of the assay: SDS-PAGE (non-reducing and reducing) with Western blot; cleared COS-7 lysates prepared with 5 mM NEM; untreated or reduced with 330-400 mM DTT at RT for 30 min; 4-12% gel; detection with FKRP207 antibody. In general terms: In western blotting, separated proteins are transferred to a membrane and probed.
Assay [1] deals with Full length FKRP, C-terminally tagged with HA (FKRP-HA) or Myc (FKRP-Myc) (human) (UniProt Q9H9S5). Nature of the assay: co-IP; COS-7 cells co-transfected with FKRP-Myc and FKRP-HA; lysate with 5 mM NEM; agarose-coupled anti-Myc antibody, 4°C, 45 min; reducing SDS-PAGE, blot with anti-HA.
Assay [2] shares this target. The assay can be described thus: condition: only lysates of separate solo transfections mixed after lysis (RT, 30 min); co-IP; lysates of separate solo transfections of FKRP-Myc and FKRP-HA (COS-7, 5 mM NEM) mixed and incubated at RT for 30 min, then anti-Myc precipitation; blot with anti-HA.
The target in a further assay is FKRP-Cys6Ser (human) (UniProt Q9H9S5). Nature of the assay: SDS-PAGE (non-reducing and reducing) with Western blot; cleared COS-7 lysates prepared with 5 mM NEM; untreated or reduced with 330-400 mM DTT at RT for 30 min; 4-12% gel; detection with FKRP207 antibody.
Assay [3] deals with FKRP32-494 (yeast two-hybrid fusions N-LexA-FKRP32-494-C and N-GAL4-FKRP32-494-C) (human) (UniProt Q9H9S5). Nature of the assay: two-hybrid; pairwise; LexA-DBD bait (pB27) and Gal4-AD prey (pP7) in diploid yeast; growth on DO-3 medium lacking Trp, Leu and His (HIS3 reporter).

Results are given in words; binding and its absence hold for the method and conditions named. For some assays here: In cells and extracts the contact can be indirect. Some results given as binding are weak or reduced against the parent protein; the word gives no strength. For some assays here: Sequences can lack the tags named with a protein.

B1: FKRP-157-Cys6Ser (domain or fragment, UniProt Q9H9S5 1-157)
chain: MRLTRSQAALAAAITLNLLVLFYVSWLQHQPRNSRARGPRRASAAGPRVTVLVREFEAFDNAVPELVDSFLQQDPAQPVVVAADTLPYPPLALPRIPNVRLALLQPALDRPAAASRPETYVATEFVALVPDGARAEAPGLLERMVEALRAGSARLVA
Consider B1, for which the binding result with FKRP-157-Cys6Ser (human) is on record as “no binding”.

B2: Full length FKRP, C-terminally tagged with HA (FKRP-HA) or Myc (FKRP-Myc) (protein, UniProt Q9H9S5 1-495)
chain: MRLTRCQAALAAAITLNLLVLFYVSWLQHQPRNSRARGPRRASAAGPRVTVLVREFEAFDNAVPELVDSFLQQDPAQPVVVAADTLPYPPLALPRIPNVRLALLQPALDRPAAASRPETYVATEFVALVPDGARAEAPGLLERMVEALRAGSARLVAAPVATANPARCLALNVSLREWTARYGAAPAAPRCDALDGDAVVLLRARDLFNLSAPLARPVGTSLFLQTALRGWAVQLLDLTFAAARQPPLATAHARWKAEREGRARRAALLRALGIRLVSWEGGRLEWFGCNKETTRCFGTVVGDTPAYLYEERWTPPCCLRALRETARYVVGVLEAAGVRYWLEGGSLLGAARHGDIIPWDYDVDLGIYLEDVGNCEQLRGAEAGSVVDERGFVWEKAVEGDFFRVQYSESNHLHVDLWPFYPRNGVMTKDTWLDHRQDVEFPEHFLQPLVPLPFAGFVAQAPNNYRRFLELKFGPGVIENPQYPNPALLSLTGSG
Consider B2, for which the results for the binding result in assay [1] and in assay [2] were “binds” and “no binding”, respectively.

B3: FKRP-Cys6Ser (protein, UniProt Q9H9S5 1-495)
chain: MRLTRSQAALAAAITLNLLVLFYVSWLQHQPRNSRARGPRRASAAGPRVTVLVREFEAFDNAVPELVDSFLQQDPAQPVVVAADTLPYPPLALPRIPNVRLALLQPALDRPAAASRPETYVATEFVALVPDGARAEAPGLLERMVEALRAGSARLVAAPVATANPARCLALNVSLREWTARYGAAPAAPRCDALDGDAVVLLRARDLFNLSAPLARPVGTSLFLQTALRGWAVQLLDLTFAAARQPPLATAHARWKAEREGRARRAALLRALGIRLVSWEGGRLEWFGCNKETTRCFGTVVGDTPAYLYEERWTPPCCLRALRETARYVVGVLEAAGVRYWLEGGSLLGAARHGDIIPWDYDVDLGIYLEDVGNCEQLRGAEAGSVVDERGFVWEKAVEGDFFRVQYSESNHLHVDLWPFYPRNGVMTKDTWLDHRQDVEFPEHFLQPLVPLPFAGFVAQAPNNYRRFLELKFGPGVIENPQYPNPALLSLTGSG
Turning to B3, the binding result in the assay with FKRP-Cys6Ser (human) is recorded as “no binding”.

B4: FKRP32-494 (yeast two-hybrid fusions N-LexA-FKRP32-494-C and N-GAL4-FKRP32-494-C) (domain or fragment, UniProt Q9H9S5 32-494)
chain: RNSRARGPRRASAAGPRVTVLVREFEAFDNAVPELVDSFLQQDPAQPVVVAADTLPYPPLALPRIPNVRLALLQPALDRPAAASRPETYVATEFVALVPDGARAEAPGLLERMVEALRAGSARLVAAPVATANPARCLALNVSLREWTARYGAAPAAPRCDALDGDAVVLLRARDLFNLSAPLARPVGTSLFLQTALRGWAVQLLDLTFAAARQPPLATAHARWKAEREGRARRAALLRALGIRLVSWEGGRLEWFGCNKETTRCFGTVVGDTPAYLYEERWTPPCCLRALRETARYVVGVLEAAGVRYWLEGGSLLGAARHGDIIPWDYDVDLGIYLEDVGNCEQLRGAEAGSVVDERGFVWEKAVEGDFFRVQYSESNHLHVDLWPFYPRNGVMTKDTWLDHRQDVEFPEHFLQPLVPLPFAGFVAQAPNNYRRFLELKFGPGVIENPQYPNPALLSLTGS
In the case of B4, the binding entry in assay [3] is “binds”.

The values are drawn from article PMC3160285, “Fukutin-Related Protein Resides in the Golgi Cisternae of Skeletal Muscle Fibres and Forms Disulfide-Linked Homodimers via an N-Terminal Interaction” (PLoS ONE, 2011).
